# According to the supplement of paper PMC8728848:
# Some of the results follow.
# Key:
# Test in all cases: glycan array binding signal (z-score within array); higher = stronger binding
# Settings in all cases: glycan notation: IUPAC condensed, linker removed
# Gal(b1-2)Gal = target: Gal(b1-2)Gal
# Procedure, shortened: (§1)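 From the Consortium for Functional Glycomics database, 3228 arrays were curated, keeping only those whose protein sequence was available. Binding is given as a within-array Z-score averaged across arrays sharing a protein sequence and across linkers. Negative Z-scores can be read as non-binding.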
# Gal(b1-3)Gal = target: Gal(b1-3)Gal
# Procedure, shortened: as §1
# Gal(b1-3)Gal(b1-4)GlcNAc = target: Gal(b1-3)Gal(b1-4)GlcNAc
# Procedure, shortened: as §1
# Gal(b1-3)GalNAc = target: Gal(b1-3)GalNAc
# Procedure, shortened: as §1
# [1] = target: Gal(b1-3)GalNAc(a1-3)[Fuc(a1-2)]Gal(b1-4)Glc
# Procedure, shortened: as §1
# [2] = target: Gal(b1-3)GalNAc(a1-3)[Fuc(a1-2)]Gal(b1-4)GlcNAc
# Procedure, shortened: as §1
# Gal(b1-3)GalNAc(b1-3)Gal = target: Gal(b1-3)GalNAc(b1-3)Gal
# Procedure, shortened: as §1
# [3] = target: Gal(b1-3)GalNAc(b1-3)Gal(a1-4)Gal(b1-4)Glc
# Procedure, shortened: as §1
# [4] = target: Gal(b1-3)GalNAc(b1-4)Gal(b1-4)Glc
# Procedure, shortened: as §1
# [5] = target: Gal(b1-3)GalNAc(b1-4)[Neu5Ac(a2-3)]Gal(b1-4)Glc
# Procedure, shortened: as §1
# Gal(b1-3)GlcNAc = target: Gal(b1-3)GlcNAc
# Procedure, shortened: as §1
# [6] = target: Gal(b1-3)GlcNAc(a1-3)Gal(b1-4)GlcNAc
# Procedure, shortened: as §1
# [7] = target: Gal(b1-3)GlcNAc(a1-6)Gal(b1-4)GlcNAc
# Procedure, shortened: as §1
# Gal(b1-3)GlcNAc(b1-2)Man = target: Gal(b1-3)GlcNAc(b1-2)Man
# Procedure, shortened: as §1
# [8] = target: Gal(b1-3)GlcNAc(b1-2)Man(a1-3)[Gal(b1-3)GlcNAc(b1-2)Man(a1-6)]Man(b1-4)GlcNAc(b1-4)GlcNAc
# Procedure, shortened: as §1
# [9] = target: Gal(b1-3)GlcNAc(b1-2)Man(a1-3)[Gal(b1-3)GlcNAc(b1-2)Man(a1-6)]Man(b1-4)GlcNAc(b1-4)[Fuc(a1-6)]GlcNAc
# Procedure, shortened: as §1
# [10] = target: Gal(b1-3)GlcNAc(b1-2)Man(a1-3)[GlcNAc(b1-4)][Gal(b1-3)GlcNAc(b1-2)Man(a1-6)]Man(b1-4)GlcNAc(b1-4)GlcNAc
# Procedure, shortened: as §1
# [11] = target: Gal(b1-3)GlcNAc(b1-2)[Gal(b1-3)GlcNAc(b1-6)]Man(a1-6)[Gal(b1-3)GlcNAc(b1-2)Man(a1-3)]Man(b1-4)GlcNAc(b1-4)GlcNAc
# Procedure, shortened: as §1
# [12] = target: Gal(b1-3)GlcNAc(b1-3)Gal(b1-3)GlcNAc
# Procedure, shortened: as §1
# [13] = target: Gal(b1-3)GlcNAc(b1-3)Gal(b1-4)Glc
# Procedure, shortened: as §1
# [14] = target: Gal(b1-3)GlcNAc(b1-3)Gal(b1-4)GlcNAc
# Procedure, shortened: as §1
# [15] = target: Gal(b1-3)GlcNAc(b1-3)Gal(b1-4)GlcNAc(b1-2)Man(a1-3)[Gal(b1-3)GlcNAc(b1-3)Gal(b1-4)GlcNAc(b1-2)Man(a1-6)]Man(b1-4)GlcNAc(b1-4)GlcNAc
# Procedure, shortened: as §1
# [16] = target: Gal(b1-3)GlcNAc(b1-3)Gal(b1-4)GlcNAc(b1-2)[Gal(b1-3)GlcNAc(b1-3)Gal(b1-4)GlcNAc(b1-6)]Man(a1-6)[Gal(b1-3)GlcNAc(b1-3)Gal(b1-4)GlcNAc(b1-2)Man(a1-3)]Man(b1-4)GlcNAc(b1-4)[Fuc(a1-6)]GlcNAc
# Procedure, shortened: as §1
# [17] = target: Gal(b1-3)GlcNAc(b1-3)Gal(b1-4)GlcNAc(b1-3)Gal(b1-4)GlcNAc(b1-2)[Gal(b1-3)GlcNAc(b1-3)Gal(b1-4)GlcNAc(b1-3)Gal(b1-4)GlcNAc(b1-6)]Man(a1-6)[Gal(b1-3)GlcNAc(b1-3)Gal(b1-4)GlcNAc(b1-3)Gal(b1-4)GlcNAc(b1-2)Man(a1-3)]Man(b1-4)GlcNAc(b1-4)[Fuc(a1-6)]GlcNAc
# Procedure, shortened: as §1
# [18] = target: Gal(b1-3)GlcNAc(b1-3)Gal(b1-4)GlcNAc(b1-6)[Gal(b1-3)GlcNAc(b1-3)]Gal(b1-4)Glc
# Procedure, shortened: as §1
# [19] = target: Gal(b1-3)GlcNAc(b1-3)Gal(b1-4)[Fuc(a1-3)]GlcNAc
# Procedure, shortened: as §1
# [20] = target: Gal(b1-3)GlcNAc(b1-3)Gal(b1-4)[Fuc(a1-3)]GlcNAc(b1-6)[Gal(b1-3)GlcNAc(b1-3)]Gal(b1-4)Glc
# Procedure, shortened: as §1
# [21] = target: Gal(b1-3)GlcNAc(b1-3)GalNAc
# Procedure, shortened: as §1
# [22] = target: Gal(b1-3)GlcNAc(b1-6)Gal(b1-4)GlcNAc
# Procedure, shortened: as §1
# [23] = target: Gal(b1-3)GlcNAc(b1-6)GalNAc
# Procedure, shortened: as §1
# [24] = target: Gal(b1-3)GlcNAc(b1-6)[Gal(b1-3)]GalNAc
# Procedure, shortened: as §1
# Gal(b1-3)GlcNAc6S = target: Gal(b1-3)GlcNAc6S
# Procedure, shortened: as §1
# [25] = target: Gal(b1-3)[Fuc(a1-4)]GlcNAc
# Procedure, shortened: as §1
# [26] = target: Gal(b1-3)[Fuc(a1-4)]GlcNAc(b1-2)Man
# Procedure, shortened: as §1
# [27] = target: Gal(b1-3)[Fuc(a1-4)]GlcNAc(b1-2)Man(a1-3)[Gal(b1-3)[Fuc(a1-4)]GlcNAc(b1-2)Man(a1-6)]Man(b1-4)GlcNAc(b1-4)[Fuc(a1-6)]GlcNAc
# Procedure, shortened: as §1
# [28] = target: Gal(b1-3)[Fuc(a1-4)]GlcNAc(b1-3)Gal(b1-3)[Fuc(a1-4)]GlcNAc
# Procedure, shortened: as §1
# [29] = target: Gal(b1-3)[Fuc(a1-4)]GlcNAc(b1-3)Gal(b1-4)[Fuc(a1-3)]GlcNAc
# Procedure, shortened: as §1
# [30] = target: Gal(b1-3)[Fuc(a1-4)]GlcNAc(b1-6)GalNAc
# Procedure, shortened: as §1
# [31] = target: Gal(b1-3)[GlcNAc(b1-6)]GalNAc
# Procedure, shortened: as §1
# [32] = target: Gal(b1-3)[Neu5Ac(a2-6)]GalNAc
# Procedure, shortened: as §1
# [33] = target: Gal(b1-3)[Neu5Ac(a2-6)]GlcNAc(b1-4)Gal(b1-4)Glc
# Procedure, shortened: as §1
# [34] = target: Gal(b1-3)[Neu5Ac(b2-6)]GalNAc
# Procedure, shortened: as §1
# Gal(b1-4)Gal = target: Gal(b1-4)Gal
# Procedure, shortened: as §1
# [35] = target: Gal(b1-4)GalNAc(a1-3)[Fuc(a1-2)]Gal(b1-4)GlcNAc
# Procedure, shortened: as §1
# [36] = target: Gal(b1-4)GalNAc(b1-3)[Fuc(a1-2)]Gal(b1-4)GlcNAc
# Procedure, shortened: as §1
binder,measurement,setting,value
Arath Fbox LD (Arabidopsis thaliana) (protein) EFSVWLEKASGKRCLMLSAMNLSIIWGDNPQYWQWIPIPESRFEKVAKLRDVCWFEIRGRTNTRVLSPRTRYSAYIVFKGVDKCYGFQNVAIEAAVGVVGQEPSRRLICFSEAIRRGRRNVVKPKQREDGWMEIELGEFFNDGGIMDNDEIEMSALETKQLNRKCGLIIQGIEIRPAKILAAASFLEQKLISEEDLNSAVDHHHHHH,glycan array binding signal (z-score),Gal(b1-2)Gal,2.67
same,glycan array binding signal (z-score),Gal(b1-3)Gal,-0.517
same,glycan array binding signal (z-score),Gal(b1-3)Gal(b1-4)GlcNAc,0.14
same,glycan array binding signal (z-score),Gal(b1-3)GalNAc,-0.028
same,glycan array binding signal (z-score),[1],-0.368
same,glycan array binding signal (z-score),[2],-0.331
same,glycan array binding signal (z-score),Gal(b1-3)GalNAc(b1-3)Gal,-0.645
same,glycan array binding signal (z-score),[3],-0.575
same,glycan array binding signal (z-score),[4],-0.506
same,glycan array binding signal (z-score),[5],-0.557
same,glycan array binding signal (z-score),Gal(b1-3)GlcNAc,-0.396
same,glycan array binding signal (z-score),[6],-0.525
same,glycan array binding signal (z-score),[7],-0.468
same,glycan array binding signal (z-score),Gal(b1-3)GlcNAc(b1-2)Man,-0.473
same,glycan array binding signal (z-score),[8],2.33
same,glycan array binding signal (z-score),[9],-0.592
same,glycan array binding signal (z-score),[10],-0.473
same,glycan array binding signal (z-score),[11],0.62
same,glycan array binding signal (z-score),[12],-0.605
same,glycan array binding signal (z-score),[13],-0.508
same,glycan array binding signal (z-score),[14],-0.462
same,glycan array binding signal (z-score),[15],-0.513
same,glycan array binding signal (z-score),[16],0.467
same,glycan array binding signal (z-score),[17],-0.067
same,glycan array binding signal (z-score),[18],-0.659
same,glycan array binding signal (z-score),[19],-0.574
same,glycan array binding signal (z-score),[20],-0.626
same,glycan array binding signal (z-score),[21],0.072
same,glycan array binding signal (z-score),[22],-0.617
same,glycan array binding signal (z-score),[23],-0.42
same,glycan array binding signal (z-score),[24],0.663
same,glycan array binding signal (z-score),Gal(b1-3)GlcNAc6S,-0.192
same,glycan array binding signal (z-score),[25],-0.102
same,glycan array binding signal (z-score),[26],4.02
same,glycan array binding signal (z-score),[27],2.55
same,glycan array binding signal (z-score),[28],-0.603
same,glycan array binding signal (z-score),[29],-0.31
same,glycan array binding signal (z-score),[30],-0.128
same,glycan array binding signal (z-score),[31],-0.477
same,glycan array binding signal (z-score),[32],-0.238
same,glycan array binding signal (z-score),[33],-0.085
same,glycan array binding signal (z-score),[34],-0.604
same,glycan array binding signal (z-score),Gal(b1-4)Gal,1.31
same,glycan array binding signal (z-score),[35],-0.644
same,glycan array binding signal (z-score),[36],-0.58
